Data: article PMC6919601, “Identification of Plasmodium dipeptidyl aminopeptidase allosteric inhibitors by high throughput screening” (PLoS ONE, 2019)
The whole screen tested about 110,000 compounds, of which about 230 (0.21%) showed an effect of 50% or more. Some of the results follow.

These compounds were tested against DPAP1 (Plasmodium falciparum, UniProt Q8IIJ9) (assay: primary screen, percent inhibition; read by cleavage of a fluorogenic dipeptide substrate; higher = more effect of the substance).
DPAP1, sequence (Q8IIJ9 whole entry, looked up): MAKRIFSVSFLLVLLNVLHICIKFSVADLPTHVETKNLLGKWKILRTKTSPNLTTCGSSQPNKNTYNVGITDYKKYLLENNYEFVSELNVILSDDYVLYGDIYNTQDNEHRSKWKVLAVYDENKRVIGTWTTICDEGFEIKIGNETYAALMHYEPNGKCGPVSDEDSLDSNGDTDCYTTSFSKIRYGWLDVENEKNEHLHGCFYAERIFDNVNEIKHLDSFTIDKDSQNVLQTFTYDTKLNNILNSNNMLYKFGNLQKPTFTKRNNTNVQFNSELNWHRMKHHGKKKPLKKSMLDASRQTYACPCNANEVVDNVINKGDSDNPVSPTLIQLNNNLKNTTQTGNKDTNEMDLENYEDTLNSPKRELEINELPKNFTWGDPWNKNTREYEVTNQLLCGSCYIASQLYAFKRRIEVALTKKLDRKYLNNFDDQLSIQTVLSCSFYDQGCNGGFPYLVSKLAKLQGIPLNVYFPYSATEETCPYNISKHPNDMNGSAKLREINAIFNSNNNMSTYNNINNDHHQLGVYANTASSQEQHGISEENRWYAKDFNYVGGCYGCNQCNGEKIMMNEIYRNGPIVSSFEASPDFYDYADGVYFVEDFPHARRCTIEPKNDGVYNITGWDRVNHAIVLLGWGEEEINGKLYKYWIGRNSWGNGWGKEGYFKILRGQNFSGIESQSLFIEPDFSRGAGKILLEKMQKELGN
Parameters: species or system P. falciparum D10 trophozoite lysates; single well
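Note: 30 min substrate incubation versus DMSO and 10 µM JCP410 controls.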

Row | SMILES | % Inhibition @ 10 uM [%]
1 | Cc1ccc(OCCn2c(Br)nc3c2c(=O)n(C)c(=O)n3C)cc1 | 6.07
2 | CCC(Cc1ccccc1)NC(=O)c1ccccc1 (stereo not drawn) | 4.73
3 | O=C(Nc1cc(Cl)ccc1Cl)C12CC3CC(CC(C3)C1)C2 | 1.63
4 | COc1ccccc1/C=C/c1nc(C#N)c(N(C)Cc2ccccc2)o1 | -2.57
5 | COC(=O)c1ccc(COc2ccc(-c3nnn(CC(N)=O)n3)cc2)cc1 | -4.35
6 | Cc1cc(C)c2c(n1)sc1c(=O)n(Cc3ccccc3Cl)nnc12 | 2.09
7 | CC1(C(Cl)Cl)C=CC(=O)C=C1 | 2.45
8 | CNC(=O)c1cc(C)c(-c2ccccc2)s1 | 8.71
9 | CCN1C(=O)C2(C(C#N)=C(N)OC3=C2C(=O)CCC3)c2ccccc21 (stereo not drawn) | -2.68
10 | COc1ccc(OC)c(C2NC(=O)NC(C)=C2C(=O)OCc2ccccc2)c1 (stereo not drawn) | 0.736
11 | Oc1[nH]c2ccccc2c1/C=N/c1nccs1 | 0.205
12 | Cc1cccc(C(=O)NC(C(=O)O)C23CC4CC(CC(C4)C2)C3)c1 (stereo not drawn) | -0.0619
13 | Cc1ccc(C2=NS(=O)(=O)N(C)C(C(=O)NCc3ccc(F)cc3)=C2)cc1 | -4.68
14 | COc1ccc(C(=O)Nc2cccc(C)c2C)c(OC)c1 | -4.15
15 | c1ccc(-c2csc3nnc(SCc4ccc5c(c4)OCO5)n23)cc1 | 0.778
16 | CCC(C)NC(=O)CN(Cc1ccccc1)S(=O)(=O)c1ccc(Cl)cc1 (stereo not drawn) | -9.18
17 | CC(C)CCOc1ccc(CSCCCN=C(N)N)cc1 | -1.91
18 | COc1ccc(N(CC(=O)N2CCCC2)S(=O)(=O)c2ccccc2)cc1Cl | -1.68
19 | Cc1cc2c(c(S)n1)C(=O)O/C2=C\c1c[nH]nc1-c1cccs1 | 43.6
20 | CC(C)NS(=O)(=O)c1ccc(OCC(=O)Nc2ccc(Cl)c(Cl)c2)cc1 | 3.35
21 | Cc1ccc(C(C)C)c(OCCCn2c(CO)nc3ccccc32)c1 | -4.07
22 | Cc1nc(CC(=O)Nc2sc3c(c2C(N)=O)CCC(C)C3)cs1 (stereo not drawn) | 8.49
23 | Cc1ccc(C(C)(C)C)c(OCC(=O)NCc2ccco2)c1 | -1.49
24 | O=C(Cn1cnc2ccccc2c1=O)Nc1ccc2ccccc2c1 | 0.674
25 | Cc1cc(-c2[nH]nc3c2C(c2ccccc2Cl)C(C#N)=C(N)O3)c(C)s1 (stereo not drawn) | -0.99
26 | COCCCNC(=O)c1c(NC(=O)c2nc(SC)ncc2Cl)sc2c1CCCC2 | -2.85

Row | SMILES | % Inhibition @ 10 uM [%]
27 | CC(C)(C)NC(=O)C1CCC(C/N=c2/c(N3CCCCC3)c(O)c2=O)CC1 (stereo not drawn) | 1.22
28 | CC(C)OCCCn1c(=O)c2ccccc2n2c(CCC(=O)NC(C)c3ccccc3)nnc12 (stereo not drawn) | -1.44
29 | COc1ccc(NC2=C(Cl)C(=O)N(c3ccccc3C)C2=O)c(OC)c1 | 1.08
30 | Fc1ccc(-c2nsc3c(N4CCCC4)ncnc23)cc1 | 0.758
31 | CCCN(C(=O)c1cccc(OC)c1)c1nc(-c2ccccc2)cs1 | -2.7
32 | Nc1ccc2oc(-c3ccc4ccccc4c3)nc2c1 | 4.57
33 | NCCc1n[nH]c(Cc2ccccc2)n1 | -2.72
34 | CCOc1ccc(CNC(=O)c2cc3cc4cc(OC)ccc4nc3s2)cc1 | 2.28
35 | O=C(COc1ccc(S(=O)(=O)N2CCCC2)cc1)N1CCN(c2ccccc2)CC1 | -1.61
36 | COc1ccc(OCC(=O)N2CCN(c3ccccc3OC)CC2)cc1 | 1.67
37 | CC1=C(C(=O)Nc2ccc(F)cc2)C(c2ccccn2)C2=C(O)CC(C)(C)CC2=N1 (stereo not drawn) | -4.48
38 | COc1ccc(CN2C(=O)c3nccnc3C2=O)cc1 | -6.67
39 | CCn1cc2c(c1-c1ccccc1)c(=O)n(C)c(=O)n2C | -1.52
40 | C/C(=N\[C@@H](CC1(C)CCCC1)C(=O)NCC#N)NS(=O)(=O)c1ccccc1 | 5.94
41 | CCCNC(=O)c1ccc(-n2c(C)cc3c2CCC(C)C3)cc1 (stereo not drawn) | 7.46
42 | COc1ccc(CCNC(=O)CCS(=O)(=O)c2ccc3nc(C)sc3c2)cc1OC | -5.26
43 | COc1cc(CCC(=O)Nc2cccnc2)cc(OC)c1OC | 1.88
44 | O=C(NC(=S)N1CCOCC1)c1cccs1 | -5.62
45 | O=P(O)(CNc1ccccc1O)c1ccccc1 | -0.687
46 | COc1ccc(NCc2ccncc2)cc1 | -1.38
47 | CCSc1n[nH]c2nc3nc4c(C)cccc4c-3nn12 | 7.26
48 | Cc1cc(C)c(Cn2c3ccccc3c3cnn(CC(=O)NC4CC4)c(=O)c32)c(C)c1 | -1.8
49 | COc1cc(C(=O)N2CCC(C(=O)O)CC2)cc(OC)c1OC | 1.52
50 | O=S(=O)(c1cccc2nonc12)N1CCC2(CC1)OCCO2 | -4
51 | COc1ccc2sc3c(O)nc4ccccc4c3c2c1 | 1.88
52 | Cc1sc(NC(=O)c2cccc(Br)c2)c(C(N)=O)c1C | 3.69

Row | SMILES | % Inhibition @ 10 uM [%]
53 | CN(C)c1nc(N)nc(COC(=O)c2ccc(-n3nnc(Cc4ccccc4F)n3)cc2)n1 | -4.04
54 | COc1ccccc1/C=C/C1=NC(=C\c2cccc(F)c2)/C(=O)O1 | 17
55 | O=C1c2cccc3cccc(c23)C(=O)N1CCC(=O)n1cnc2ccccc21 | 0.147
56 | COc1ccc(Cl)cc1NC(=O)C1CCCN1S(=O)(=O)c1ccc(Cl)cc1 (stereo not drawn) | 4.41
57 | O=C(NCCCN1CCOCC1)c1cc(-c2ccncc2)nc2ccccc12 | -2.26
58 | Cc1cccc(NC(=O)c2sc3nc(C)cc(C)c3c2N)n1 | -6.43
59 | O=C(Nc1cc([N+](=O)[O-])ccc1Cl)c1ccc([N+](=O)[O-])o1 | 5.43
60 | CC(C)CSc1nc(N)c2c3c(sc2n1)CCC3 | 81.4
61 | COc1cc(OC)c(CN2CCN(Cc3ccccc3)CC2)cc1Br | -2.56
62 | Cc1oc(-c2ccccc2Cl)nc1CSCC(=O)NCc1ccc2c(c1)OCO2 | 0.689
63 | CC(=O)NCCOc1nc(N2CCOCC2)nc(N2CCOCC2)n1 | 0.401
64 | COc1cccc(CNc2nc3c(-c4cccc(C(F)(F)F)c4)nnn3c3ccccc23)c1 | -8.42
65 | CC1=C(C(=O)Nc2cccnc2)C(c2cccc(O)c2)n2nc(SCc3ccccc3)nc2N1 (stereo not drawn) | -7.43
66 | Cc1ccc(-c2cc(NC(=O)C(C)C)on2)cc1 | -3.24
67 | N#Cc1c(-c2cccs2)cc(-c2ccccc2)nc1SCC(=O)NC1CC1 | 3.19
68 | C=CCOc1ccc(C2CC(=O)OC3=C2C(=O)CC(C)(C)C3)cc1 (stereo not drawn) | -5.96
69 | FC(F)(F)c1cccc(N2CCN(Cc3ccoc3)CC2)c1 | 5.42
70 | COc1ccc(/C=C/C(O)=C2C(=O)c3ccccc3C2=O)cc1 | -3.98
71 | NC(=O)COc1ccc(C2c3c(oc4ccccc4c3=O)C(=O)N2c2nncs2)cc1 (stereo not drawn) | -6.94
72 | O=C(O)c1cc(C23CC4CC(CC(C4)C2)C3)nc2ccc(Br)cc12 | 12
73 | Cc1ccc(NC(=O)c2cccc([N+](=O)[O-])c2)cc1Cl | -4.5
74 | CCc1nc2cccnc2n1-c1ccc(CC(=O)NCc2ccco2)cc1 | -0.0668
75 | O=C(O)C1Cc2c([nH]c3ccccc23)C(c2ccccc2Br)N1 (stereo not drawn) | -8.11
76 | COc1ccc(S(=O)(=O)NCCSCc2cccc(C)c2)cc1OC | -1.33
77 | CN1C(=O)CC(N2CCN(c3ccc(F)cc3)CC2)C1=O (stereo not drawn) | -0.268
78 | C=Cc1ccc(Cn2c(C)c(CNCCc3ccccc3OC)c(C(=O)O)c2C)cc1 | 1.41

Row | SMILES | % Inhibition @ 10 uM [%]
79 | Cc1ccc(/C=C2/C(=O)c3ccc(C(=O)O)cc3C2=O)o1 | 5
80 | COc1ccc(-c2noc(CSc3nnc(-c4ccncc4)n3CC(C)C)n2)cc1OC | -0.45
81 | Cc1nnc(NC(C)C)c2c1nnn2Cc1ccc(F)cc1 | 0.00706
82 | CCOCCCNC(=O)c1ccc(CS(=O)(=O)c2ccccc2OC)o1 | -1.28
83 | Cc1ccc(C)c(CN2CCCN(c3ncnc4onc(-c5ccc(F)cc5)c34)C2)c1 | 0.0057
84 | Nc1sc2c(c1C(=O)c1ccccc1)CCCC2 | 21.4
85 | C=CCn1c(-c2ccccc2)cs/c1=N\c1ccc(O)cc1 | -2.99
86 | COC(=O)C1=C(N)OC2=C(C(=O)CCC2)C1c1cccnc1 (stereo not drawn) | 18.5
87 | Cc1ccc(-c2nc3ccccc3[nH]2)cn1 | 3.01
88 | O=C(Cn1ncn2c(cc3ccccc32)c1=O)NCCCc1ccccc1 | 0.0198
89 | CCOc1cc(Cl)c(S(=O)(=O)N2CCN(C)CC2)cc1Cl | -1.51
90 | COC(=O)c1[nH]c2c(c1C)C(=O)CC(c1ccccc1)C2 (stereo not drawn) | 6.28
91 | O=C(O)c1cccc2c1-c1ccccc1C2=O | -8.6
92 | COc1cc(C2C(C#N)=C(N)OC3=C2C(=O)CC(C)(C)C3)ccc1OCC(N)=O (stereo not drawn) | 2.56
93 | COc1cccc(C2C3=C(NCCN=C3c3ccccc3)C(=O)N2c2ccccc2)c1 (stereo not drawn) | 1.67
94 | Cc1nc2ncnn2c(O)c1NC(=O)CCc1ccccc1 | 2.97
95 | OCC1CCCN(Cc2ccc(-c3ccccc3)cc2)C1 (stereo not drawn) | 0.273
96 | O=C(CC1(O)C(=O)N(Cc2cccc3ccccc23)c2ccccc21)c1ccccc1O (stereo not drawn) | -4.68
97 | COc1ccccc1[C@@H](C)C[C@H](NC(=O)OC(C)(C)C)C(=O)NCC#N | -4.82
98 | Nc1ncn(C(=O)c2ccccc2)n1 | 2.09
99 | CC(C)(Cc1nc2ccccc2[nH]1)c1nc2ccccc2[nH]1 | 4.94
100 | CCCC/C(=N\c1ccccc1O)C1=C(O)CC(C)(C)CC1=O | -5.07
101 | CC(C)CC1C(C#N)=C(N)OC2=C1C(=O)CC(C)(C)C2 (stereo not drawn) | 2.76
102 | CCC(C(=O)NCCc1c[nH]c2ccccc12)n1nc(C)n2c(cc3occc32)c1=O (stereo not drawn) | -5.63
